Variants at the background level are over-represented here.
B1: glmS ribozyme (parent)
chain: AUAAAAGCGCCAGAACUACAGAAAUGUAGUUGACGAGGAGGAGGUUUAUCGAAUUUUCGGCGGAUGCCUCCAAA

What was measured:
Conditions in all cases: with glucosamine-6-phosphate
[1] = variants of: B1; test: kcat; higher = faster cleavage; RNA array
How it was run: (§1)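 kcat and KM were obtained from weighted Michaelis–Menten fits across concentrations of kobs values. Those came from one- or two-exponential decay fits to per-tile medians normalised to baseline and to non-cleaving reference variants. The variants were barcoded ribozymes transcribed in situ by E. coli RNA polymerase on sequenced MiSeq chips and tracked through a hybridised Cy3 probe at 37 °C, with 40 μM to 10 mM glucosamine-6-phosphate in HEPES/KCl/Mg(OAc)2 buffer flowed in.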

[2] = variants of: B1; test: self-cleavage kobs at 10000 uM GlcN6P; higher = faster cleavage; RNA array
How it was run: as §1

[3] = variants of: B1; test: self-cleavage kobs at 40 uM GlcN6P; higher = faster cleavage; RNA array
How it was run: as §1

[4] = variants of: B1; test: self-cleavage kobs at 640 uM GlcN6P; higher = faster cleavage; RNA array
How it was run: as §1

[5] = variants of: B1; test: self-cleavage kobs at 160 uM GlcN6P; higher = faster cleavage; RNA array
How it was run: as §1

[6] = variants of: B1; test: self-cleavage kobs at 2500 uM GlcN6P; higher = faster cleavage; RNA array
How it was run: as §1

Variant | kcat [1] [s⁻¹] | self-cleavage kobs at 10000 uM GlcN6P [2] [s⁻¹] | self-cleavage kobs at 40 uM GlcN6P [3] [s⁻¹] | self-cleavage kobs at 640 uM GlcN6P [4] [s⁻¹] | self-cleavage kobs at 160 uM GlcN6P [5] [s⁻¹] | self-cleavage kobs at 2500 uM GlcN6P [6] [s⁻¹]
A36U C61G | < 1e-05 | < 1e-05 | – | – | – | –
A6G A14C A15U U45G A52U | – | < 1e-05 | < 1e-05 | – | – | –
A6C C16A A42C C68G | – | < 1e-05 | < 1e-05 | – | – | –
A6C A42U | – | < 1e-05 | < 1e-05 | < 1e-05 | < 1e-05 | –
A6C U49G C67U | – | – | < 1e-05 | – | – | –
G41C C67A | < 1e-05 | – | – | – | – | –
A39C G43U | < 1e-05 | – | < 1e-05 | < 1e-05 | < 1e-05 | –
C10G A15U | < 1e-05 | – | < 1e-05 | < 1e-05 | < 1e-05 | –
A6G A42U | – | < 1e-05 | < 1e-05 | < 1e-05 | < 1e-05 | –
A6C G7U G9C A53G | – | < 1e-05 | < 1e-05 | – | – | –
G29A G44C | < 1e-05 | – | < 1e-05 | – | – | –
G9A A12G | < 1e-05 | – | < 1e-05 | < 1e-05 | – | –
G38U U65G | < 1e-05 | – | < 1e-05 | < 1e-05 | – | –
A6C C11U A14C G37U A39U A53G U65C | – | – | < 1e-05 | – | – | –
U57C G66U | < 1e-05 | – | – | – | – | –
A6G A12U A36G U54A | – | – | < 1e-05 | – | – | –
C61A C71A | < 1e-05 | < 1e-05 | – | – | < 1e-05 | –
G38C A64C | < 1e-05 | < 1e-05 | – | < 1e-05 | < 1e-05 | –
G62C G63C | < 1e-05 | < 1e-05 | – | – | < 1e-05 | –
A6C U47C U54A G59A C70U | – | – | < 1e-05 | – | – | –
A6G A14G G32C G44A A53C U65G C68U | – | – | < 1e-05 | – | – | < 1e-05
A36C A48U | < 1e-05 | < 1e-05 | < 1e-05 | – | – | < 1e-05
U57G U65C | < 1e-05 | < 1e-05 | – | < 1e-05 | – | –
A6G G32C A33C G41U G43C | – | < 1e-05 | < 1e-05 | – | – | –
G62A C71U | < 1e-05 | < 1e-05 | < 1e-05 | – | – | –
C10U G32C U55G | < 1e-05 | – | – | – | – | –

Variant | kcat [1] [s⁻¹] | self-cleavage kobs at 10000 uM GlcN6P [2] [s⁻¹] | self-cleavage kobs at 40 uM GlcN6P [3] [s⁻¹] | self-cleavage kobs at 640 uM GlcN6P [4] [s⁻¹] | self-cleavage kobs at 160 uM GlcN6P [5] [s⁻¹] | self-cleavage kobs at 2500 uM GlcN6P [6] [s⁻¹]
A6G G7C U45G C67U | – | – | < 1e-05 | – | – | < 1e-05
A33G G63U | < 1e-05 | – | – | – | < 1e-05 | < 1e-05
A6C U55C C70U | – | – | < 1e-05 | – | – | –
G43A U69A | < 1e-05 | < 1e-05 | < 1e-05 | – | – | < 1e-05
C10U C68A | < 1e-05 | – | < 1e-05 | – | – | –
G62U C70U | < 1e-05 | – | – | – | – | –
A6G A52U C61G | – | – | < 1e-05 | – | – | –
G38A C50A | < 1e-05 | – | – | – | – | –
A6G G35U A52C C70G | – | – | < 1e-05 | – | – | –
A12U G13C A14U | < 1e-05 | < 1e-05 | < 1e-05 | < 1e-05 | – | –
G32A G59U C71A | < 1e-05 | – | < 1e-05 | – | – | –
G37A A48U | < 1e-05 | – | – | – | < 1e-05 | –
C10A C67U | < 1e-05 | – | – | – | – | –
A6C G29C A36U C61U | – | < 1e-05 | < 1e-05 | – | – | < 1e-05
G37U U46A | < 1e-05 | – | < 1e-05 | – | < 1e-05 | –
A6U A64C | – | < 1e-05 | < 1e-05 | < 1e-05 | – | –
G51A A53U | < 1e-05 | < 1e-05 | < 1e-05 | < 1e-05 | < 1e-05 | –
A36U A48C | < 1e-05 | – | – | < 1e-05 | – | –
A6G C16G G41C A42C C68A | – | < 1e-05 | < 1e-05 | – | – | –
A6G G43U U54G C70U | – | – | < 1e-05 | – | – | –
A6G U31C G41U A52U | – | – | < 1e-05 | – | – | –
C58U G60C | < 1e-05 | < 1e-05 | < 1e-05 | – | – | –
A15U G60C | < 1e-05 | < 1e-05 | – | < 1e-05 | < 1e-05 | –
C10U U30A | < 1e-05 | – | – | – | – | –
G38C G60U | < 1e-05 | < 1e-05 | < 1e-05 | < 1e-05 | – | < 1e-05
A6U C11G | < 1e-05 | – | – | – | – | < 1e-05
